# According to the supplement of paper PMC3334620:
# The full ranking holds about 33,000 sequences; the median of “E-score (-0.5 to 0.5)” is about -0.041, and the highest 2% start at about 0.37. Some of the results follow.
# Target: T1, Ecm22 (UniProt Q05958)
# T1 sequence: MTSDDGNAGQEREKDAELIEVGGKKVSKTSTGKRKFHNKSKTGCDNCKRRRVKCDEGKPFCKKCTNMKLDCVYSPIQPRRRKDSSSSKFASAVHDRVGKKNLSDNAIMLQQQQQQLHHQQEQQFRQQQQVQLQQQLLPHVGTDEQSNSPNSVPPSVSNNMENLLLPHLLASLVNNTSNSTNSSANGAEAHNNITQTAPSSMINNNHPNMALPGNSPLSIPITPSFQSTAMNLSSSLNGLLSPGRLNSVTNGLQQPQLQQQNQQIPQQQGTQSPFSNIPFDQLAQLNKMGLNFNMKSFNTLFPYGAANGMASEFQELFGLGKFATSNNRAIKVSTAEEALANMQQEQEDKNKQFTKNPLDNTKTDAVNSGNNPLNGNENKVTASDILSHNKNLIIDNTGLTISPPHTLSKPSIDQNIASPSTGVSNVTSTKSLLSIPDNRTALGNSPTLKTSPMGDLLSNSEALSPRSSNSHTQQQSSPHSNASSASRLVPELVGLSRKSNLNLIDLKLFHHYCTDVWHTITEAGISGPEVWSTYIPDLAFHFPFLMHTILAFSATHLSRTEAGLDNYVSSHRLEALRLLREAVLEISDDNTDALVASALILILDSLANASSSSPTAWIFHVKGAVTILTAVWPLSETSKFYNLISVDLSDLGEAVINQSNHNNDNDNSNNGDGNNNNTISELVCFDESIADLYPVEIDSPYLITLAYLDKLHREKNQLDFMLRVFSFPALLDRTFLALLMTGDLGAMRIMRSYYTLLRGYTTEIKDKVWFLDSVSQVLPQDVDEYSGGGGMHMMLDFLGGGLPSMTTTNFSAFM
# Assay: PBM E-score (8-mer binding enrichment) (E-score (-0.5 to 0.5)); higher = stronger / more preferred TF binding; most listed sequences are background and not binding sites
# Conditions: protein concentration: 200 nM; construct: GST-full length
# Outline: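 Yeast transcription factors carrying a GST tag, as full-length proteins or DNA-binding domains, were produced by PURExpress in vitro transcription/translation. About 100-200 nM protein was applied to universal all-10-mer Agilent arrays, double-stranded by primer extension on fresh or once-stripped slides. Bound protein was detected with fluorescent anti-GST, and scans were normalised with masliner. The Universal PBM Analysis Suite gave each ungapped eight-base word, pooled with its reverse complement, an E-score, a modified Wilcoxon-Mann-Whitney statistic.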
row,Sequence,PBM E-score
1,ATGTTAGC,0.011
2,TAGTTAGA,-0.0513
3,ACTCAATC,-0.0264
4,CACATCTA,-0.023
5,GTACCCAA,0.105
6,AGTATACC,0.0306
7,GACTAGTC,-0.227
8,CTGCCCTC,-0.216
9,CAGAACCC,0.0344
10,GCGACCAC,0.106
11,AGAACCGA,0.198
12,GCATTTCA,-0.0583
13,AATCCGAA,0.091
14,ATCCGTGG,-0.212
15,ATACATTA,0.0514
16,AGGCGACA,-0.162
17,GATATGGA,0.196
18,AGGTTCGG,0.0855
19,AAGCTGGC,-0.0255
20,CAGGGAAA,0.0935
21,AATGTCCC,-0.211
22,AGACCGGC,-0.00407
23,AGGGGTGA,-0.338
24,CAAACGGG,0.289
25,GCGTAAAC,0.271

row,Sequence,PBM E-score
1,GAACCGTA,0.248
2,CCGCAGCG,-0.0888
3,CTCGCTGA,-0.0623
4,ATAAAACG,0.315
5,ACTTTGGC,0.101
6,ACTATCGA,0.067
7,GGCACAAC,-0.169
8,CAAAGGTA,-0.06
9,TGTTCCAA,-0.0262
10,ACTACTGC,0.0658
11,CCTCACAC,-0.164
12,CGAGCTCC,0.319
13,GCATGAGA,-0.225
14,ACATTGAC,-0.0521
15,CCAACTCA,-0.147
16,GTTCCTAA,0.13
17,GTAGTGGA,-0.0911
18,CCCTCCTC,-0.109
19,ACCACTCG,0.232
20,AGTCTTTG,-0.0796
21,ATAGCAGC,-0.338
22,AAATAAGT,-0.115
23,ATACATAC,0.162
24,ACCCTAGC,-0.188
25,ACGGTTAG,-0.0946

row,Sequence,PBM E-score
1,GCTGAGGA,-0.215
2,TAACAGCA,0.0291
3,AACAGCAC,0.0118
4,AATCCGAG,0.237
5,AGGAATGC,0.014
6,TCTTTCAA,-0.0995
7,GGCCTTGA,-0.0685
8,CTTTGACC,-0.0364
9,AATCTCTC,0.0329
10,ACGTACCA,0.306
11,CGGATTCA,-0.0829
12,GCATCGGA,0.126
13,AGTTTCTG,-0.0553
14,GAGCTTCA,0.0348
15,GTTTTGCA,-0.0475
16,AGCTCTCA,-0.173
17,CGAACGAA,0.393
18,AAGCTCTG,-0.258
19,GTTTAGTA,0.271
20,CTAAGCAA,-0.202
21,ACGAATTG,0.245
22,GATCGAAC,0.0918
23,GCGGTTAC,0.0599
24,CAAGTTTA,-0.047
25,CCCAGTGC,0.101

row,Sequence,PBM E-score
1,CCCCCATC,-0.167
2,CCTAATTA,-0.174
3,GTCCTTAA,-0.0655
4,AATCCGGC,-0.0348
5,CGTAATAG,0.247
6,TAGGTCAA,-0.0569
7,ATAGTCTA,-0.0728
8,TCCGTCCA,0.0127
9,CCACCTGC,-0.273
10,CAGTCATC,-0.0607
11,CCTTTCTC,-0.112
12,CGTACCGA,0.447
13,ACAAACAA,-0.0654
14,CTGCATCC,-0.11
15,ATATATTC,0.167
16,ACGAGGTC,0.389
17,ACCCGAAA,0.14
18,GGGTATTA,0.0254
19,CATAGAGG,-0.145
20,AGCATTAT,-0.171
21,GCGGGTAA,-0.0692
22,GGCCGTAC,0.419
23,ATACCGAG,0.107
24,CGTCATGA,-0.0328
25,CTCATTTC,-0.113

row,Sequence,PBM E-score
1,ATATGTGC,0.0592
2,AATTAGGC,0.0178
3,CGTGAACA,0.153
4,ATTTGCCC,-0.174
5,ACTGGTAC,0.137
6,TGACTAAA,-0.284
7,CTAAATAC,0.178
8,CTTGATGA,0.0629
9,TAACCAAA,-0.0322
10,TGGGCCCA,0.135
11,CCGACATA,0.0428
12,ACTAGGTA,-0.149
13,AAAAGGCT,-0.188
14,ATTGAGAA,0.182
15,ACCGTCGA,-0.216
16,GGCGTAAA,0.159
17,CGTCGAAG,0.024
18,ACCTGTCG,0.164
19,CGAAGATC,0.23
20,CGTCCATC,-0.102
21,AGTGGTAA,-0.005
22,AGGATACA,-0.162
23,GTGGCGGA,-0.152
24,CCTTGGAA,-0.179
25,CTAGTGCC,-0.265

row,Sequence,PBM E-score
1,GACAAGGA,-0.113
2,AAACTCTT,-0.254
3,AGAAATCC,-0.0579
4,AGGGATTA,0.0278
5,GAACGGGA,0.327
6,ACCCAAGC,-0.135
7,CGAAGAAG,0.156
8,AATCCGTC,0.0386
9,ACTACCAC,-0.216
10,CCTGAGCA,-0.0624
11,ACTACCTG,-0.128
12,AGTCTCAA,-0.205
13,GAGTGGCA,0.0213
14,GTACACAC,0.301
15,CAGCCACG,-0.171
16,ACAAGGCA,-0.256
17,ACATGGAG,-0.101
18,GAGCTCCA,-0.0784
19,AGCATCAC,-0.158
20,ATAATTAA,0.179
21,ACAAGTGT,-0.0175
22,AGCAGGGC,-0.0233
23,ACGATCTG,0.23
24,GCACCGCC,-0.036
25,GCATGAAA,0.0408

row,Sequence,PBM E-score
1,CTGGTATC,-0.157
2,CGCCCTGA,-0.15
3,AAGACATT,-0.164
4,GATCGGTA,0.128
5,ACATTCCT,-0.118
6,AAGAACCG,0.125
7,CATCTCTA,-0.0595
8,GCGGTTCA,-0.184
9,GCAACCTA,-0.183
10,GACCGCAA,0.18
11,CCAGCACG,-0.0336
12,AGCCGAAC,0.0556
13,CCCCCAAG,-0.353
14,ATAAACAC,0.106
15,GCCAAAAA,-0.181
16,TGGGACAA,-0.366
17,CGCCGATC,-0.0427
18,ACGAACAG,0.282
19,CCTCCAGG,-0.204
20,ACTTCTAT,0.0379
21,AACTACAT,-0.202
22,ATGCACGA,0.0562
